Hit rate of the full screen: of about 310,000 compounds, about 14,000 (4.5%) showed an effect of 50% or more. The effect is printed as a negative number. This is one part of the list.
biological target: human ether-à-go-go-related gene (hERG) potassium channel (human, UniProt Q12809); assay: primary screen, population patch clamp on CHO cells stably expressing hERG
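Note: peak tail current of the secondary pulse compared with the same well before compound.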

Sequence of human ether-à-go-go-related gene (hERG) potassium channel (Q12809 whole entry, looked up): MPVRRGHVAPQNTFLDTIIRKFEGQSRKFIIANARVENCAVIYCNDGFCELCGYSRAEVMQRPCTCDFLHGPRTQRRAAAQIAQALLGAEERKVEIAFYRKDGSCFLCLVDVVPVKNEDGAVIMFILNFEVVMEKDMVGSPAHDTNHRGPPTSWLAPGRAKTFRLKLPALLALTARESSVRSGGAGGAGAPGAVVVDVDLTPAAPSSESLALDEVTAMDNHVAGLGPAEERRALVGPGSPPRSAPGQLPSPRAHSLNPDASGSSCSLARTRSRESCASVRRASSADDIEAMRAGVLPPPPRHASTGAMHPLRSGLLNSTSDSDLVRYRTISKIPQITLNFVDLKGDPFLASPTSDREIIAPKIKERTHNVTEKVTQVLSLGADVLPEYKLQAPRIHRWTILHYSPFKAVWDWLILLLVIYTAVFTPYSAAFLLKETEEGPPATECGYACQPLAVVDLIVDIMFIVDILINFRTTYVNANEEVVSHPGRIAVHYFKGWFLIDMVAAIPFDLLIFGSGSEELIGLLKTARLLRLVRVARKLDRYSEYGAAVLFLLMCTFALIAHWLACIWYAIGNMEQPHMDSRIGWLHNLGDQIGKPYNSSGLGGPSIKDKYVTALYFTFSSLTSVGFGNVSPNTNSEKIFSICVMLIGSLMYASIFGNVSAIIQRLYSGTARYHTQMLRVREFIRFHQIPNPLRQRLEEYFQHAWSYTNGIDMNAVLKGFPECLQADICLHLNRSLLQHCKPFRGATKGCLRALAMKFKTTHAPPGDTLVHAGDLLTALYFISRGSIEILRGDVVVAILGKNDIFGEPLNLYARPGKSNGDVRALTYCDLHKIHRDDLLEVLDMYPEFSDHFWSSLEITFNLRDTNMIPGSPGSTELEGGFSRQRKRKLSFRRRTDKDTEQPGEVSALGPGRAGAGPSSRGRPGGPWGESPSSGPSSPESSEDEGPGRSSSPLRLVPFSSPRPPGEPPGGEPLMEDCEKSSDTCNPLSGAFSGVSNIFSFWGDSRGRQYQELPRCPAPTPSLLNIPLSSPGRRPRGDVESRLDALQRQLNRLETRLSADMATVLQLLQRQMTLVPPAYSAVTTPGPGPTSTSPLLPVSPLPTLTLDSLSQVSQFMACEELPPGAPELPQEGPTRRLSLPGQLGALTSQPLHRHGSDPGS

Structure (SMILES)	hERG current change (%, negative = inhibition) at 10uM [%]
COc1ccc(S(=O)(=O)N2CCCC2)cc1C(C)C	1.54
Cc1cccc(NC(=O)c2ccc(S(=O)(=O)N3CCOCC3)cc2)n1	19.5
CNc1ccc(C(=O)OCC(=O)NCc2ccc3c(c2)OCO3)cc1[N+](=O)[O-]	-5.5
CC1CC(C)CN(C(=O)Cn2cc(C=O)c3ccccc32)C1 (stereo not shown)	-4.11
O=C(O)CSCC(=O)N1CCCN(c2nccc(C(F)(F)F)n2)CC1	12.2
COc1ccc(NC(=S)N(CCCN2CCOCC2)C(C)c2cc3ccccc3o2)cc1 (stereo not shown)	-78.4
COc1ccc(OC)c(C2/C(=C(/O)c3ccccc3)C(=O)C(=O)N2Cc2ccco2)c1 (stereo not shown)	19.7
CCn1cc(/C=N/NC(=O)c2cc3c(ccc4ccccc43)o2)c2ccccc21	4.1
O=C(NCCO)c1cccc(S(=O)(=O)N2CCCCC2)c1	7.11
CC(Sc1cccc[n+]1[O-])C(=O)Nc1cccc([N+](=O)[O-])c1 (stereo not shown)	19.7
N#Cc1cccc(C(c2nnnn2C2CCCC2)N2CCC(Cc3ccccc3)CC2)c1 (stereo not shown)	8.5
O=C(CCC(=O)Nc1ccccc1)NCCO	6.11
O=C(CSc1nnc2ccc(-c3ccccn3)nn12)Nc1ccccc1	3.09
CCOc1ccc(NS(=O)(=O)c2ccc(NC(C)=O)c(OC)c2)cc1	0.524
O=C(NC12CC3CC(CC(C3)C1)C2)c1ccco1	-4.38
COc1ccc(-n2nc3c(N4CCC(C(=O)NCC(C)c5ccccc5)CC4)nnc(C)c3c2C)cc1 (stereo not shown)	-32.6
CC1CCCN(C(=O)c2ccc(OC3CCN(CCc4ccccc4)CC3)cc2)C1 (stereo not shown)	-58.1
CCc1cccc2c1Sc1ccccc1CC2N1CCNCC1.CS(=O)(=O)O (stereo not shown)	-31.1
Cc1ccc(S(=O)(=O)N2CCN(C(=O)c3cccc(-n4cccc4)c3)CC2)cc1	-51.3
COc1ccc(CCNC(=O)CSc2nnnn2C)cc1OC	43.3
COC(=O)C1=C(N)Oc2c(oc(CO)cc2=O)C1c1ccccc1F (stereo not shown)	9.97
CC(=O)Nc1ccc(Oc2cc(NC(C)=O)cc([N+](=O)[O-])c2)cc1	6.36

Structure (SMILES)	hERG current change (%, negative = inhibition) at 10uM [%]
CCCCCCOc1ccc(OC(=O)c2ccncc2)cc1	6.12
CCOC(=O)N1CCN(S(=O)(=O)N2CCCC(C(=O)NCCCN3CC(C)CC(C)C3)C2)CC1 (stereo not shown)	18.9
CCC/C(=N/Nc1ccc(Cl)cc1)c1cnnc(-c2ccccc2)n1	-10.2
C/C(CC(=O)Nc1cccnc1)=N/NC(=O)COc1ccc(Cl)cc1Br	-6.52
Cc1ccc(CN2CCN(Cc3ccccc3F)CC2)cc1.O=C(O)C(=O)O	-12.2
COC(=O)C1=C(c2ccc(C(C)=O)cc2)C[C@@H]2CC[C@H]1N2C(=O)NCCNC(C)=O	26
CCn1ncc([N+](=O)[O-])c1C(=O)Nc1ccc(C)c(C)c1	-6.38
COCCN(C(=O)CC1CCCC1)c1c(N)n(CC(C)C)c(=O)[nH]c1=O	1.4
COc1ccccc1CNC(=O)CCS(=O)(=O)Cc1ccc(C)cc1	11.3
O=C(C1CCN(S(=O)(=O)N2CCCC2)CC1)N1CCCCC1	4.84
Cc1cc(C)c(NC(=O)COc2nc3ccccc3nc2C)c(C)c1	19.2
CC1(C)CC(=O)C2=C(C1)OC(N)=C(C#N)C21C(=O)N2CCCc3cccc1c32 (stereo not shown)	23.5
Cc1ccc2c(c1)[C@@H]1CN(C)CC[C@@H]1N2S(=O)(=O)c1ccc([N+](=O)[O-])cc1.Cl	-75
CCn1ncc([C@@H]2C[C@H]3CN(Cc4ccccc4C)C(=O)[C@]34CCCN24)c1C	17.7
CCc1ccc(NC(=O)CSc2nnnn2C)cc1	16.5
Cc1occc1-c1nnc(SCC(=O)c2cc3ccccc3oc2=O)o1	8.73
CC(=O)NC(Cc1cccc(F)c1)C(=O)NC1CCN(C(=O)Nc2ccccc2)CC1 (stereo not shown)	8.24
O=C(NNC(=O)c1cc(-c2cccc(Br)c2)nc2ccccc12)c1csc(N2CCOCC2)n1	-12
C=CCn1c(SCC(=O)c2ccc(O)c(O)c2)nnc1-c1cccnc1	19.8
Cc1ccc(C(=O)OCC(=O)Nc2cccc(S(=O)(=O)N3CCCCC3)c2)o1	6.02
O=C(COC(=O)c1ncc(Cl)c(Cl)c1Cl)Nc1cccnc1Cl	16.1
O=S(=O)(c1ccc(NC(=S)NCc2ccc(F)cc2)cc1)N1CCOCC1	-36.4

Structure (SMILES)	hERG current change (%, negative = inhibition) at 10uM [%]
O=C(O)C1(c2ccccc2)CCN(S(=O)(=O)c2ccc(Br)cc2)CC1	11.7
COc1ccc(Cc2nnc(NC(=O)Cn3cnc4c3c(=O)n(C)c(=O)n4C)s2)cc1	12.1
O=C(CCCc1nc(-c2ccccc2)no1)Nc1cccnc1	12
CS(=O)(=O)N1CCN(C(=N)N[N+](=O)[O-])CC1	33.1
Cc1cc(NC(=O)c2cc(-c3ccco3)on2)n(-c2ccccc2)n1	-0.313
NC(=S)Cc1nc2n(n1)Cc1ccccc1-2	21.6
CCCCCCCNc1nc(Cl)nc(NCCO)n1	-7.98
C=CCOc1ccc(/C=C/C(=O)OCC(=O)NCCCc2ccccc2)cc1	-3.58
CCCc1nc2oc3cc(OC)ccc3c(=O)c2c(=O)n1CCc1ccccc1	-38.3
COc1ccc(Cn2nnc3c(C)n[nH]c(=O)c32)cc1	9.86
CC(C(=O)NCc1ccccc1Cl)n1cc([N+](=O)[O-])cn1 (stereo not shown)	4.65
COc1ccc(CN2C3CCCC2CC(NC(=O)c2cccc(F)c2)C3)cc1 (stereo not shown)	-82
O=C(NCc1cccs1)C1CCCN(C(=O)Nc2ccccc2)C1 (stereo not shown)	3.13
O=C(O)CCn1cc(C(=O)O)c(-c2ccccc2)n1	17.9
CCCOc1cc(C)c(Cl)cc1S(=O)(=O)N(CC)CC	-10.9
Cc1cc(C)n2c(SCCC(C)C)nnc2n1	-31.9
Cc1ccc(/C=C(\C#N)C(=O)N2CCCC2)c(C)c1	33.4
CCc1ccc2nc(Nc3ccc(OC)cc3OC)c(C#N)cc2c1	-2.62
COC(=O)NC(=S)N1CCOCC1	0.991
COc1ccc(C(=O)C2CCN(C(=O)c3ccco3)CC2)cc1	-13.4
CC1CCc2c(C(=O)OCC(=O)Nc3cccc(S(=O)(=O)N4CCCCCC4)c3)csc2C1 (stereo not shown)	11.7
Nc1ccc2c3c(cccc13)CC2	-4.28

Structure (SMILES)	hERG current change (%, negative = inhibition) at 10uM [%]
CC(C)c1cc(C(=O)N/N=C/c2c[nH]c3ccccc23)n[nH]1	11.3
COC(=O)C1=C(C)OC(N)=C(C#N)C1c1ccc(OC)c(CSc2ccccn2)c1 (stereo not shown)	-25.8
O=C(O)COn1c(-c2ccc(Cl)cc2)nc2ccc(Cl)cc21	21
O=C(NCc1ccco1)C12CN(Cc3ccccc3)CC1C(c1ccc([N+](=O)[O-])cc1)=NO2 (stereo not shown)	-70.8
O=C(NCCCn1ccnc1)Nc1cccc2ccccc12	11.9
COc1ccccc1NS(=O)(=O)c1cc(NC(=S)NCCN2CCOCC2)ccc1N1CCOCC1	-22.9
Cc1cc(=O)oc2c(C)c(OCC(=O)NCCCN3CCCC3=O)ccc12	13
CCOc1ccc(N/N=C(/C#N)C(N)=O)cc1	1.91
Cc1cc(C)cc(NC(=O)CCC(=O)Nc2cc(C)on2)c1	8.01
COc1ccc(-n2c(C)cc(C(=O)CSc3nn4c(=O)c(C(C)(C)C)nnc4s3)c2C)cc1	-4.76
CCOc1cc(C(=O)Nc2ccc3c(c2)OCO3)ccc1OCCOc1ccccc1Cl	11
CCCCn1c(=O)[nH]c(=O)c2c1nc(COC(=O)c1c(C)noc1C)n2CCC	-45.6
Cc1onc(-c2c(F)cccc2Cl)c1C(=O)OCN1C(=O)c2ccccc2C1=O	-8.71
Br.c1ccc2oc(SCc3cn4ccsc4n3)nc2c1	-12.9
Cc1ccc(S(=O)(=O)NCC(=O)N2CCc3ccccc3C2)cc1	-4.13
Cc1ccc(S(=O)(=O)NCCC(=O)Nc2ncccc2O)cc1C	10.4
COc1ccc(-c2cn3ccc4ccccc4c3n2)cc1	7.17
Cc1ccc(CNC(=O)c2cc(=O)c3cc(C)ccc3o2)cc1	18.7
Cc1cc(C)nc(NC(=O)COc2cc(Cl)cc(Cl)c2)n1	1.44
COc1ccc(C2CC(c3cccs3)=NN2C(=O)CSc2nc(=O)n3ccc(C)cc3n2)cc1 (stereo not shown)	-65.4
Fc1ccccc1Cn1nnc2c(NCCc3ccccn3)ncnc21	-17.2
CCN(CC)CCn1c(SCC(=O)NCc2ccco2)nc2c(sc3ccccc32)c1=O	-68.2

Reference: article PMC4336329 (PLoS ONE, 2015)
